Results as given in publication PMC11967829.
No constants are given. Whether binding was seen depends on the method and setting. In cells and extracts the contact can be indirect. Some results given as binding are weak or reduced against the parent protein; the word gives no strength.

Sequences of proteins named here, by UniProt entry; tags and fusion partners are left off. A change or cut given only in a name is not applied to a line headed by its entry. A line that says so, or that is headed by a name, gives the form on record, which may keep a tag or linker.
PKM1-Myc (pyruvate kinase M, isoform 1, wild type) (P14618, form named): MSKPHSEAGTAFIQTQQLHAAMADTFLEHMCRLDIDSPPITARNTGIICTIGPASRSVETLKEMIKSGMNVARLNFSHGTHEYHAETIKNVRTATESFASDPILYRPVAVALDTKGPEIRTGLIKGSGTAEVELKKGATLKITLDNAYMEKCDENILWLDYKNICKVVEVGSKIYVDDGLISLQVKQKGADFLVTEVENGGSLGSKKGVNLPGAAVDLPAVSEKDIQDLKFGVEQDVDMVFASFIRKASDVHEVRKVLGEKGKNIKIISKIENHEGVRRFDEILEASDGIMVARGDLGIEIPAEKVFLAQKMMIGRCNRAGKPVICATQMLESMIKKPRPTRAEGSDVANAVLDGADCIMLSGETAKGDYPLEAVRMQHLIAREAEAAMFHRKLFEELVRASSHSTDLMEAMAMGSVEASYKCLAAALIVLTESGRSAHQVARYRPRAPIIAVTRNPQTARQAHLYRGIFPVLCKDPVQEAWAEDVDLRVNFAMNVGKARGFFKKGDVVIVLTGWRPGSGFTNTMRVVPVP
UniProt P09874: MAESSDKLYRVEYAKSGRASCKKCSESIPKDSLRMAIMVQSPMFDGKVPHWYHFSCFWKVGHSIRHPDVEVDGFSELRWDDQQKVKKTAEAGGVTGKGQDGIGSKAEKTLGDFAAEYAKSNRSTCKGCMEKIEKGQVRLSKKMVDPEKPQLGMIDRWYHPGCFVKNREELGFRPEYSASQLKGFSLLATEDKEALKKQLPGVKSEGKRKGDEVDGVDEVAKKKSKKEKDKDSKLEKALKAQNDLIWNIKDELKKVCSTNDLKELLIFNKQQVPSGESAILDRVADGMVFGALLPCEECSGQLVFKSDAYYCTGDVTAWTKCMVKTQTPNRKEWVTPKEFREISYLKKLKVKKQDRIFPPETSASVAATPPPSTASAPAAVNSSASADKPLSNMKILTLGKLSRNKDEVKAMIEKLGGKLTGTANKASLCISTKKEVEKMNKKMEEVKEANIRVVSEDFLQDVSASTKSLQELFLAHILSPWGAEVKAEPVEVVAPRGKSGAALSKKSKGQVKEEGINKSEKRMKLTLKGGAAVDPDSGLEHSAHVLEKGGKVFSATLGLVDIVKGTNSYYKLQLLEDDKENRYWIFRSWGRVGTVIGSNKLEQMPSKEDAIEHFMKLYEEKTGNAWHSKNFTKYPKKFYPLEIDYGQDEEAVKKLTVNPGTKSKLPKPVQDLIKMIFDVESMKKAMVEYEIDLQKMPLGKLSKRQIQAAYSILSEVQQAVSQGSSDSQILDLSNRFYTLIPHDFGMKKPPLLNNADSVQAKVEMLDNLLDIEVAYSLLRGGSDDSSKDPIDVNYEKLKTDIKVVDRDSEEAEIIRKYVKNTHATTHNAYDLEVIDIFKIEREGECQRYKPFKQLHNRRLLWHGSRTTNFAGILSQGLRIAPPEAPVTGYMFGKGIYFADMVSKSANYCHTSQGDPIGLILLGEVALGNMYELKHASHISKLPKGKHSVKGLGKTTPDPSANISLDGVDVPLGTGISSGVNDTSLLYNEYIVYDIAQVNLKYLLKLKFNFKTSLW

Molecular target: PKM1-Myc (pyruvate kinase M, isoform 1, wild type) (UniProt P14618)
Test: co-IP; PKM1 with PARP1 (Figure 5D); cells not told

binding: binds
Substance: PARP1 (in cells, co-IP) (from UniProt P09874 1-1014)
